Laboratory results: a collection of fitness landscapes (doi:10.1126/science.1257360)
Some of the results follow.

B1: PhoQ; a variant is named by its letters at X, in order, P23837 (parent)
chain: MKKLLRLFFPLSLRVRFLLATAAVVLVLSLAYGMVALIGYSVSFDKTTFRLLRGESNLFYTLAKWENNKLHVELPENIDKQSPTMTLIYDENGQLLWAQRDVPWLMKMIQPDWLKSNGFHEIEADVNDTSLLLSGDHSIQQQLQEVREDDDDAEMTHSVAVNVYPATSRMPKLTIVVVDTIPVELKSSYMVWSWFIYVLSANLLLVIPLLWVAAWWSLRPIEALAKEVRELEEHNRELLNPATTRELTSLVRNLNRLLKSERERYDKYRTTLTDLTHSLKTPLXXLQXXLRSLRSEKMSVSDAEPVMLEQISRISQQIGYYLHRASMRGGTLLSRELHPVAPLLDNLTSALNKVYQRKGVNISLDISPEISFVGEQNDFVEVMGNVLDNACKYCLEFVEISARQTDEHLYIVVEDDGPGIPLSKREVIFDRGQRVDTLRPGQGVGLAVAREITEQYEGKIVAGESMLGGARMEVIFGRQHSAPKDE

Variants of: B1
Assay: enrichment ratio after two sorts for PhoP signalling (ratio (wild type AVST 3.29)); higher = more functional
Settings: with PhoP (E. coli)

Variant | enrichment ratio
TPVH | ≤ 0.25
GQQP | ≤ 0.25
GMRL | ≤ 0.25
REAV | ≤ 0.25
GTSF | 4.66
YNGG | ≤ 0.25
FVDP | ≤ 0.25
GQYT | ≤ 0.25
NDKC | ≤ 0.25
EIPR | ≤ 0.25
PCAD | ≤ 0.25
GEVC | 7.47
IEAS | ≤ 0.25
ENCN | ≤ 0.25
GSDY | ≤ 0.25
VPGI | ≤ 0.25
TTFN | 4.6
YNCQ | ≤ 0.25
EGVD | ≤ 0.25
WMAK | ≤ 0.25
ETHN | ≤ 0.25
MHTI | ≤ 0.25
ITWY | ≤ 0.25
QFEP | ≤ 0.25
QFYP | ≤ 0.25

Variant | enrichment ratio
PYAT | ≤ 0.25
EDII | ≤ 0.25
ASST | 6.26
IGVR | ≤ 0.25
ECGK | ≤ 0.25
SDWV | ≤ 0.25
KNDF | ≤ 0.25
MQKI | ≤ 0.25
FFPQ | ≤ 0.25
MQVV | ≤ 0.25
VGQK | ≤ 0.25
FCNN | ≤ 0.25
GFTQ | ≤ 0.25
LYVK | ≤ 0.25
KIHK | ≤ 0.25
SDPC | ≤ 0.25
DNPC | ≤ 0.25
EAVP | ≤ 0.25
GITH | ≤ 0.25
TPKH | ≤ 0.25
HEEY | ≤ 0.25
IASI | ≤ 0.25
WKCE | ≤ 0.25
MAAG | 5.39
TKKR | ≤ 0.25

Variant | enrichment ratio
YEWY | ≤ 0.25
IPDT | ≤ 0.25
FNRH | ≤ 0.25
NYDC | ≤ 0.25
PNKH | ≤ 0.25
PQIF | ≤ 0.25
KNYR | ≤ 0.25
WGFF | ≤ 0.25
LCKW | ≤ 0.25
NLWG | ≤ 0.25
SMII | 2.88
SQDI | ≤ 0.25
FQIE | ≤ 0.25
WTGH | ≤ 0.25
TVTQ | 1.59
QYTN | ≤ 0.25
MMMD | ≤ 0.25
SCLK | 7.46
QHIH | ≤ 0.25
LWRL | ≤ 0.25
KQFS | ≤ 0.25
DNYK | ≤ 0.25
MQKE | ≤ 0.25
YVEL | ≤ 0.25
HFLR | ≤ 0.25

Variant | enrichment ratio
RARS | ≤ 0.25
NEHY | ≤ 0.25
PCIC | ≤ 0.25
ISTF | ≤ 0.25
HGAF | ≤ 0.25
TNHV | ≤ 0.25
PYDF | ≤ 0.25
IWQG | ≤ 0.25
HPPI | ≤ 0.25
KPYK | ≤ 0.25
MVLL | 7.33
PDGA | ≤ 0.25
PMVN | ≤ 0.25
IVGP | ≤ 0.25
TEVS | 8.74
KTNM | ≤ 0.25
SEHI | ≤ 0.25
VEQS | ≤ 0.25
SNKR | ≤ 0.25
NRVD | ≤ 0.25
LLFL | ≤ 0.25
VEQV | ≤ 0.25
RQGL | ≤ 0.25
QRTR | ≤ 0.25
ELPQ | ≤ 0.25

Variant | enrichment ratio
FHQK | ≤ 0.25
RIKE | 1.35
KVAH | ≤ 0.25
RSGS | ≤ 0.25
AGTC | 3.5
EAFS | ≤ 0.25
WTMS | ≤ 0.25
LYEM | ≤ 0.25
AHEL | ≤ 0.25
GQGT | ≤ 0.25
PLFI | ≤ 0.25
SDDL | ≤ 0.25
THGQ | ≤ 0.25
HSIM | 7.28
DWHV | ≤ 0.25
EIWQ | ≤ 0.25
VVPH | ≤ 0.25
GDIY | ≤ 0.25
KVRC | ≤ 0.25
QFPS | ≤ 0.25
SGRE | ≤ 0.25
DSFI | ≤ 0.25
YIQL | 0.395
NHTL | 0.608
TVWE | ≤ 0.25

Variant | enrichment ratio
MIAY | ≤ 0.25
KLVD | ≤ 0.25
WWQS | ≤ 0.25
EMFV | ≤ 0.25
SEQL | 3.66
NMNR | ≤ 0.25
HDSR | ≤ 0.25
QNWI | ≤ 0.25
HHAP | ≤ 0.25
AQRR | ≤ 0.25
TRIA | ≤ 0.25
RCLH | ≤ 0.25
YIWN | ≤ 0.25
HDCA | ≤ 0.25
AISM | 15.9
KNCP | ≤ 0.25
HFDK | ≤ 0.25
WDDK | ≤ 0.25
GEIG | ≤ 0.25
QVCN | ≤ 0.25
HKEP | ≤ 0.25
ESKP | ≤ 0.25
IPIG | ≤ 0.25
FQFN | ≤ 0.25
MRLP | ≤ 0.25

Variant | enrichment ratio
GPWH | ≤ 0.25
SPMC | ≤ 0.25
KQAT | ≤ 0.25
KMGP | ≤ 0.25
KRHL | ≤ 0.25
YVAP | ≤ 0.25
GDQF | ≤ 0.25
WCFL | ≤ 0.25
MGMF | ≤ 0.25
GIMA | 7.88
THNA | 5.83
IWYV | ≤ 0.25
QIIQ | ≤ 0.25
LAND | ≤ 0.25
TQDQ | ≤ 0.25
SDYL | ≤ 0.25
TMFD | ≤ 0.25
QMYM | ≤ 0.25
ISGV | ≤ 0.25
QHNH | 13.9
EKSS | ≤ 0.25
QAHT | ≤ 0.25
HNVH | ≤ 0.25
IGWQ | ≤ 0.25
LRAT | ≤ 0.25

Variant | enrichment ratio
ANCF | 6.31
TVQT | 3.76
ADCA | ≤ 0.25
RPMN | ≤ 0.25
WIVP | ≤ 0.25
TFNC | 2.85
HFSG | ≤ 0.25
VLCE | ≤ 0.25
YKWM | ≤ 0.25
FNWQ | ≤ 0.25
YDVV | ≤ 0.25
TGPI | ≤ 0.25
LMQG | ≤ 0.25
NDHA | ≤ 0.25
FHEP | ≤ 0.25
SNGY | 12.6
DSFP | 0.618
TMVN | ≤ 0.25
ESYV | ≤ 0.25
SEPI | ≤ 0.25
